Assay results published in PMC4336329 (PLoS ONE, 2015).
Hit rate of the full screen: of about 310,000 compounds, about 14,000 (4.5%) showed an effect of 50% or more. Effects have a minus sign here. This is one part of the list.

Each molecule was assayed against human ether-à-go-go-related gene (hERG) potassium channel (human, UniProt Q12809) (assay: primary screen, population patch clamp on CHO cells stably expressing hERG).
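Further: peak tail current of the secondary pulse compared with the same well before compound.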

human ether-à-go-go-related gene (hERG) potassium channel, sequence (Q12809 whole entry, looked up): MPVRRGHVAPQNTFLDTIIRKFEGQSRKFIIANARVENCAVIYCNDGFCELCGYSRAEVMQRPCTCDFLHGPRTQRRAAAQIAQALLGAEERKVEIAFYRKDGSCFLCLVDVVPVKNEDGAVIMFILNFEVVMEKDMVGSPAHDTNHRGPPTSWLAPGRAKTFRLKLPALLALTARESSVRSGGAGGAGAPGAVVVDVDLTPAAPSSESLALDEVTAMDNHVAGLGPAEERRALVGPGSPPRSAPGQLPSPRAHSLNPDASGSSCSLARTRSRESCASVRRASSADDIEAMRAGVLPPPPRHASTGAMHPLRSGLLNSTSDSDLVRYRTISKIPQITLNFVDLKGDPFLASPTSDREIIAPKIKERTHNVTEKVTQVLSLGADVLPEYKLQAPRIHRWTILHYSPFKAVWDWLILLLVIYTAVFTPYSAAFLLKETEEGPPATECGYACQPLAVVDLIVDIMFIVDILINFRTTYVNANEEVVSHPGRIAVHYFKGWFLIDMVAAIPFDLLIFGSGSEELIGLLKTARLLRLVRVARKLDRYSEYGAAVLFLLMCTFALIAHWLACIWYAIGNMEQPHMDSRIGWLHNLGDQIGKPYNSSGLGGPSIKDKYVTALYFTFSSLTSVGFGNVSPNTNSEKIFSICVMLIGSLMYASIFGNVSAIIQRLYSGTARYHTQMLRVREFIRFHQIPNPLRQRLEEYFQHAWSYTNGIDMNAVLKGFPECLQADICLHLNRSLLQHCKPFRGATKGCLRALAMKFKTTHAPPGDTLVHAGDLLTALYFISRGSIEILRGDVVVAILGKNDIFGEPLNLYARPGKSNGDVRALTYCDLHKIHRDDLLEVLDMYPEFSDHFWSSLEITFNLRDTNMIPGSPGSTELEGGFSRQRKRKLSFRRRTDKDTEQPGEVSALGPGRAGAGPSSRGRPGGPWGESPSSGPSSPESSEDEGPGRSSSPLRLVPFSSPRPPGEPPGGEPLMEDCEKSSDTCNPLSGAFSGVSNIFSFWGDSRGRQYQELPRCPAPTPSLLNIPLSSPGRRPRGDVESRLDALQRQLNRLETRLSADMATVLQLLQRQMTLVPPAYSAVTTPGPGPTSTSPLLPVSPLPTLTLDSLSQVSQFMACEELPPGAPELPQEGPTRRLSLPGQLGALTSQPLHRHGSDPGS

Structure (SMILES) | hERG current change (%, negative = inhibition) at 10uM
Fc1ccc(CSc2nsc(SCc3ccc(F)cc3)n2)cc1 | 9.9%
COc1cc2c(cc1OC)CN(C(=O)C1(c3ccccc3)CC1)CC2 | -13.4%
CCOC(=O)/C(C#N)=C1\SS/C(=C(/C#N)C(=O)OCC)S1 | 18.5%
CCOc1cc2[nH]c(=S)n(Cc3ccc(C(=O)NCCOC)cc3)c(=O)c2cc1OCC | 2.62%
Cc1ccc(/C=N/NC(=O)c2c(-c3ccccc3)noc2C)c(O)c1 | -5.9%
O=C(COC(=O)/C=C/c1cccc(F)c1)NC1CCCC1 | 4.41%
O=C(c1cccs1)N1CCN(S(=O)(=O)c2ccc(F)cc2)CC1 | -7.26%
O=C(Nc1ccc2oc(-c3ccncc3)nc2c1)c1ccccc1 | 9.7%
C/C(=N/NS(=O)(=O)c1ccc(C)c(C)c1)c1c[nH]c2ccccc12 | 29.6%
Cc1cc2c(C)c(C)c(=O)[nH]c2cc1N | 7.66%
COc1ccc(C(=O)NC(C)CCc2ccccc2)cc1[N+](=O)[O-] (centres unmarked) | -33.7%
CCc1nnc(N/N=C/c2ccc(-c3ccc([N+](=O)[O-])cc3)o2)n1N | -18.6%
O=C(COC(=O)c1cc(=O)[nH]c2ccccc12)c1cccs1 | 19.8%
CCOC(=O)c1sc(=S)n(C)c1N | -12.2%
Cc1nnc(Nc2ccc(Cl)cc2)s1 | 8.14%
CCOC(=O)C1(Cc2cccc(Cl)c2)CCCN(C(=O)CCNC(C)=O)C1 (centres unmarked) | 7.98%
O=C(COC(=O)c1cc2ccccc2oc1=O)Nc1cccc(Br)c1 | 18.3%
Cc1ccccc1NC(=S)NCCc1ccccc1 | 5.04%
CCOc1c2ccoc2nc2c(OC)c(OC)ccc12 | -2.57%
Cc1c(C(O)CN2CCC(C(N)=O)CC2)c2ccccc2n1C (centres unmarked) | -3.73%

Structure (SMILES) | hERG current change (%, negative = inhibition) at 10uM
CCOc1cccc2cc(C(=O)NCc3cccnc3)c(=O)oc12 | -1.94%
COC(=O)CCC(=O)NNC(=O)c1ccc(Cl)cc1Cl | 18%
Clc1ccc(-c2ccnc(Oc3ccc4ccccc4c3)n2)cc1 | 7.34%
C=CCNc1cc(C)oc(=O)c1C(=O)CC | -4.15%
COc1ccc(C=O)cc1CSc1ccccn1 | -11.2%
CN1CCN(c2ccc([N+](=O)[O-])c(NCC3CCCO3)c2)CC1.Cl (centres unmarked) | -41.4%
O=C(COC(=O)C1CCC1)NCc1ccc(Cl)cc1Cl | 6.29%
CC(=O)C1=C(O)CCC1=NCCc1ccccc1 | 5.41%
O=C(Nc1ccc(OC(F)(F)F)cc1)Nc1cccnc1 | -45.5%
Cn1cccc1Cc1nnc(SCC(=O)Nc2ccc(F)cc2)n1CCc1ccccc1 | -41.3%
O=C1NCCCc2c1no[n+]2[O-] | 10.1%
C/C(=N\NC(=O)CSc1nc(C)cc(C)n1)c1ccc([N+](=O)[O-])cc1 | -10.8%
Cc1ccccc1NC(=O)COC(=O)c1cc(S(=O)(=O)N2CCOCC2)ccc1C | -3.81%
CCN1CCN(C(=O)COc2ccc(S(=O)(=O)NC(C)C)cc2)CC1 | 16%
S=C(NCCN1CCOCC1)NC1CCCC1 | 13.4%
CCOC(=O)NN=C1CN(S(=O)(=O)c2ccc(C)cc2)C1 | 14.7%
CCN1CCN(C(=O)CCN2C(=O)c3ccccc3S2(=O)=O)CC1.Cl | 7%
O=Cc1ccccc1OCCOc1ccc([N+](=O)[O-])cc1 | -35%
CNC(=O)c1ccc(NC(=O)c2cc(S(=O)(=O)N(C)C)ccc2N2CCCC2)cc1 | 1.67%
COc1ccccc1Nc1ccncc1[N+](=O)[O-] | 3.13%

Structure (SMILES) | hERG current change (%, negative = inhibition) at 10uM
CCS(=O)(=O)Nc1cccc(C2=NN(S(C)(=O)=O)C(c3cccs3)C2)c1 (centres unmarked) | -11.1%
COc1ccc(NC(=O)c2cc(F)c(F)cc2Cl)cc1Cl | -5.58%
O=C(Nc1ccc2c(c1)CCCN2C(=O)c1cccs1)c1ccccc1 | -10.1%
FC(F)(F)c1ccccc1CN1CCC(Cc2ccccc2)CC1 | 12%
CCOC(=O)c1oc2nc(C(C)C)c3c(c2c1N)CCC3 | 14.5%
COc1cc(NC(=S)N2CCN(c3ccccn3)CC2)cc(OC)c1 | 11.1%
O=C(O)c1cc(N2C(=O)C3CCCCC3C2=O)ccc1NCc1cccnc1 (centres unmarked) | 22.4%
CNC(=S)NNC(=O)c1oc2nc(-c3ccccc3)cc(-c3ccco3)c2c1N | 4.29%
CCN(CC)C(=O)CC(c1cc(OC)c(OC)c(OC)c1)c1c(O)cc(OC)cc1OC (centres unmarked) | 3.55%
CC(=O)c1cccc(CN2CCN(CCC(C)C)C(CCO)C2)c1 (centres unmarked) | -29%
Cc1ccc(NC(=O)CSc2nnc(N)s2)cc1S(=O)(=O)N1CCOCC1 | 8.24%
O=C(c1cn(-c2ccccc2)nc1-c1cccs1)N1CCOCC1 | -11.5%
COc1cc(NC(=O)CNC(=O)Cn2ccc3ccccc3c2=O)cc(OC)c1OC | 18.4%
CCOc1ccc(/C=C2\SC(=S)N(CCC(=O)Nc3cccc(C(=O)O)c3)C2=O)cc1 | 3.57%
CCN(CC(=O)NC(C)(C)C)C(=O)COc1c(Cl)cc(Cl)c2ccc(C)nc12 | -27.6%
CC(C)CNc1ncnc2c1cnn2Cc1ccc(Cl)cc1 | -7.32%
N/C(Cc1ccc(Cl)cc1)=N\OC(=O)Cc1ccc([N+](=O)[O-])cc1 | -4.32%
Cc1cc2ccccn2c1C(=O)Nc1ccccc1 | -2.23%
CCOc1ccccc1NC(=O)C1CCCN(S(=O)(=O)c2ccccc2)C1 (centres unmarked) | -19.2%
